The values that follow come from PubChem BioAssay (NCI).

Each structure is given as a SMILES string.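 These data come from cells grown in 96-well plates and exposed to compound for 48 hours at five concentrations. Abbreviation: GI50, concentration required for 50% inhibition of growth. The concentration for full growth arrest is given as TGI.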

The test concerns NCI-H322M lung. The test is described as follows: NCI tumour cell line growth inhibition, 48 h.

As for `O=C1O[C@H]2[C@@H]3OC(=O)c4cc(O)c(O)c(O)c4-c4c(cc(O)c(O)c4O)C(=O)OC[C@H]2O[C@@H](OC(=O)c2cc(O)c(O)c(O)c2)[C@@H]3OC(=O)c2cc(O)c(O)c3c2[C@@H]2C1=CC(=O)C(O)(O)C2(O)O3` (some centres undefined), the TGI was greater than 100 µM. Consider `C=C(CN1CCN(c2cccc(F)c2)CC1)c1ccc(C(=O)Nc2ccccc2N)cc1`, for which the GI50 is 4.3 µM and the TGI is greater than 100 µM. On to `CNC1C(OC2C(OC3C(O)C(O)C(O)C(O)C3O)OC(C)C2(O)CO)OC(CO)C(O)C1O` (centres undefined) (tested in a mixture with another compound), for which the TGI was greater than 100 µM.

Turning to `NC(N)=Nc1nc2ccccc2[nH]1`, the GI50 was 66.3 µg/mL and the TGI worked out at 123 µg/mL. The compound `Cc1n[nH]c(=O)n1N1C(=O)c2ccccc2C1=O` gave a TGI greater than 100 µM.

Regarding `CCc1ccc(Nc2cc(C)nc3nc(C)nn23)cc1`, the GI50 is greater than 100 µM and the TGI is greater than 100 µM. `CCN(CC)c1nc(N(C)C)c2cc(OC)ccc2n1` had a TGI greater than 100 µM. Still for that read-out and setting: the result for `O=C1OC2C(O)C(=O)OC2C1O` (centres undefined) reads greater than 100 µM. The same measure, in the same setting: the result for `CC(=O)OCc1cn(S(=O)(=O)c2ccc(C)cc2)cn1` reads greater than 100 µM; that for `CN(C(=O)c1cccs1)C(=S)N1CCN(c2ccccc2)CC1`, greater than 100 µM.

The compound `COc1ccc(/C(C)=N/NC(N)=S)c(OC)c1` came in with a TGI greater than 100 µM. On to `C[C@@]1(N2C(=O)OC[C@@H]2c2ccccc2)C(=O)N([C@H](CC(=O)N2CCC(N3CCCCC3)CC2)C(=O)NCc2cccc(C(F)(F)F)c2)[C@@H]1/C=C/c1ccccc1`, for which the GI50 is 2.23 µM and the TGI was 6.05 µM. Consider `CC1OC(OC2CC(O)(C(=O)CO)Cc3c(O)c4c(c(O)c32)C(=O)c2ccccc2C4=O)CC(N)C1O` (centres undefined), for which the TGI is 1.28 µM. With `O=C1c2cccnc2C(=O)c2c1c(C(=O)OCCN1CCOCC1)c1ccccn21`, the GI50 is 0.0476 µM and the TGI was determined as 1.43 µM. In turn, `COc1cc(OC)nc(Nc2c(C#N)c3nc4ccccc4n3c3ccccc23)n1` gave a TGI greater than 100 µM.

For the compound `CC(C)CC(=O)NS(=O)(=O)c1ccccc1`, the TGI was greater than 100 µM. Regarding `CCn1cnc2c(NC(C)=O)ncnc21`, the TGI is greater than 100 µM. Same read-out and setting: for `Cc1cc2c(c(N)c1C)C(=O)c1ccccc1C2=O` the value was greater than 100 µM; for `N=c1oc2c(Cl)cc(Cl)cc2cc1C(=O)Nc1ccccn1`, greater than 100 µM; for `[N-]=[N+]=NC1=C(c2ccccc2)C(=O)c2cccc3cccc1c23`, greater than 100 µM. Still for that read-out and setting: for `CCN(CC)CC(O)C1CCC(c2ccccc2)CC1` (centres undefined) the value was greater than 100 µM; for `CCOC(=O)NC(=O)c1cn(CCSCCOC(=O)NCCCCCCNC(=O)OCCSCCn2cc(C(=O)NC(=O)OCC)c(=O)[nH]c2=O)c(=O)[nH]c1=O`, greater than 100 µM.

`COC(Cc1ccccc1)NC(C)=O` (centres undefined) gave a TGI greater than 100 µM. Same read-out and setting: the result for `C=C(C(=O)O)[C@@H]1C[C@@H]2O[C@H]1CC(C)=CCC/C(C)=C/CC[C@@]2(C)O` reads greater than 100 µM. The compound `CC1=C2C(O)C(C(C)C(=O)NC(C)C)CCC2(C)C=CC1=O` (centres undefined) showed a TGI greater than 100 µM. With `CC[C@]12CCCN3CC[C@]4(C(=C(C(=O)OC)C1)Nc1ccccc14)[C@@H]32`, the GI50 was 26.6 µM and the TGI is greater than 100 µM. `ClC[Si]12OCCN(CCO1)CCO2` registered a TGI greater than 100 µM. Same read-out and setting: for `CCCCOC(=O)C1CN2C(=NC1(C(F)(F)F)C(F)(F)F)Sc1ccccc12` (centres undefined) the value was greater than 100 µM. Still for that read-out and setting: the result for `CCNc1ncnc2n[nH]nc12` reads greater than 100 µM; that for `COc1ccc(CC2C3=C(CCCC3)CCN2C)cc1` (centres undefined), greater than 100 µM; that for `Cc1nc2c(ncn2CCO)c(=O)[nH]1`, greater than 100 µM. Same read-out and setting: the result for `CN(C)CCC1(C2=CCCC2)CC/C(=C\c2ccccc2)C1=O` (centres undefined) reads 30.3 µM; that for `CN1CCN(c2ccc(-n3cc(C(=O)O)c(=O)c4cc(F)c(N5CCN(C)CC5)cc43)nc2)CC1`, greater than 100 µM; that for `COc1ccc(C(=O)O)c(Cc2ccc3ccccc3c2)c1`, greater than 100 µM. Compound `O=C(Nc1c(Cl)cc([N+](=O)[O-])cc1Cl)/C(=N\Nc1cccc(Cl)c1)c1c(O)c2ccccc2oc1=O` yielded a TGI greater than 100 µM.

On to `N#CC1=C(c2ccccc2)C(O)(c2ccccc2)NC1=O` (centres undefined), for which the TGI is greater than 100 µM. For `C=C1C(=O)OC2/C=C(\C)C3OC3/C=C(/C(=O)OC)C(OC(C)=O)C(OC(=O)C(C)(O)C(C)OC(C)=O)C12` (centres undefined), the TGI was found to be 20.7 µM. `CC[C@]12C=CCN3CCC4(c5cc([C@@]6(C(=O)OC)CC7CN(CCc8c6[nH]c6ccccc86)C[C@@H]6CCC[C@H]76)c(OC)cc5N(C)C4[C@](O)(C(=O)OC)C1OC(C)=O)C32` (some centres undefined): the TGI was greater than 10 µM. Same read-out and setting: the result for `O=C1C(N2C(=O)c3ccccc3C2=O)CN1C(COCc1ccccc1)c1ccc(OCc2ccccc2)cc1` (centres undefined) reads greater than 100 µM; that for `COc1cc(-c2cc(CCC(=O)Nc3ccccc3[N+](=O)[O-])n(-c3ccc([N+](=O)[O-])cc3[N+](=O)[O-])n2)ccc1O`, greater than 10 µM. Same read-out and setting: for `O=[N+]([O-])c1ccc(-c2cn(-c3ccc(Cl)cc3)cn2)cc1` the value was greater than 100 µM. Still for that read-out and setting: for `COc1ccc(-c2nnc(CCCCCCCCc3nnc(-c4ccc(OC)cc4)o3)o2)cc1` the value was greater than 100 µM; for `O=C1C[C@H]2[C@H](c3ccc(Br)cc3)[C@H]3C(=O)c4ccccc4NC(=O)[C@@H]3[C@@]2(O)c2ccccc2N1`, 72.4 µM; for `BrC12c3ccccc3Sc3ccccc3C1(Br)c1ccccc12` (centres undefined), greater than 100 µM. For `Cc1cccc(NC(=O)CC#N)c1Cl`, the TGI is greater than 100 µM. Consider `O=C1OC(c2ccccc2)N/C1=C\c1ccc2c(c1)OCO2` (centres undefined), for which the TGI is greater than 100 µM.

In turn, `CC(O[Si](C)(C)C)C1C=CC(C)n2c(=O)n(-c3ccccc3)c(=O)n21` (centres undefined) came in with a TGI greater than 100 µM. For the compound `COc1cc(C2C(C#N)=C(N)Oc3cc(O)ccc32)cc(OC)c1OC` (centres undefined), the GI50 is 2.94 µM and the TGI was greater than 100 µM. Regarding `Cc1cc(N=Nc2ccc(N=Nc3c(O)c(S(=O)(=O)O)cc4cc(S(=O)(=O)O)ccc34)cc2C)ccc1N=Nc1ccc2cc(S(=O)(=O)O)cc(S(=O)(=O)O)c2c1`, the TGI is greater than 100 µM.

Turning to `CC(=O)Nc1sc2c(c1-c1nc3ccccc3s1)CNC2`, the GI50 is 2.46 µM and the TGI was found to be 14.9 µM. On to `COC(=O)c1ccc(C2SCC(=O)N2NC(=O)C(O)c2ccccc2)cc1` (centres undefined), for which the GI50 was greater than 100 µM and the TGI was greater than 100 µM. `CC1Cc2cc(O)ccc2C2[C@@H]1C1CC[C@H](O)[C@@]1(C)C[C@@H]2O[N+](=O)[O-]` (some centres undefined) gave a TGI greater than 100 µM. As for `CCN1CCN(C(=O)[C@]23CCC(C)(C)C[C@@H]2C2=CC[C@@H]4[C@@]5(C)C/C(=C/c6cccnc6)C(=O)C(C)(C)[C@@H]5CC[C@@]4(C)[C@]2(C)CC3)CC1`, the GI50 is 2.87 µM and the TGI came to 9.25 µM.

`COc1c(O)cc(C(=O)O[C@@H]2Cc3c(O)cc(O)cc3O[C@@H]2c2cc(O)c(O)c(O)c2)cc1O` displayed a TGI of 59.8 µM. `CCOC(=O)c1cc(-c2ccc(Cl)cc2)c([N+](=O)[O-])n1C`: the TGI was greater than 10 µM. Regarding `O=C(c1ccccc1)c1c(CNCc2ccccc2)n(C(=O)c2ccccc2)c2ccccc12`, the TGI was greater than 100 µM.

In turn, `CC(=O)O[C@H]1[C@@H](N2CCN(C)CC2)C[C@H]2[C@@H]3CC=C4C[C@@H](N5CCCC5)CC[C@]4(C)[C@H]3CC[C@@]21C` showed a TGI greater than 100 µM. Still for that read-out and setting: for `CC(=O)OCC1OC(Sc2ccccn2)C=CC1OC(C)=O` (centres undefined) the value was greater than 100 µM; for `COC(=O)C1CCC(=O)N1C(c1ccc2c(c1)OCO2)c1ccc2c(c1)OCO2` (centres undefined), greater than 100 µM.
